{
  "source": "PubChem BioAssay AID602292",
  "about": "(National Center for Advancing Translational Sciences (NCATS), 2012)",
  "note": "Hit rate of the full screen: of about 1,300 compounds, about 380 (29%) were called active. This list was built around the results that the source calls inconclusive (neither active nor inactive); the mix of calls is not that of the screen. Calls follow the shape of the dose curve; as a rule, active = well fitted inhibition curve with a large enough effect; inconclusive = small, poorly fitted or top-dose-only effect; inactive = flat fitted curve, though single readings scatter. Potencies of inconclusive entries are left out as doubtful fits. % is scaled to controls: 0 for no effect and ±100 for the full control effect; potency is read from the fitted curve at half-maximal effect; tags tell the direction and shape of the fitted curve.",
  "data": [
    {"biological_target": "Thyrotropin receptor (Homo sapiens) (UniProt P16473)", "sequence (P16473 whole entry, looked up)": "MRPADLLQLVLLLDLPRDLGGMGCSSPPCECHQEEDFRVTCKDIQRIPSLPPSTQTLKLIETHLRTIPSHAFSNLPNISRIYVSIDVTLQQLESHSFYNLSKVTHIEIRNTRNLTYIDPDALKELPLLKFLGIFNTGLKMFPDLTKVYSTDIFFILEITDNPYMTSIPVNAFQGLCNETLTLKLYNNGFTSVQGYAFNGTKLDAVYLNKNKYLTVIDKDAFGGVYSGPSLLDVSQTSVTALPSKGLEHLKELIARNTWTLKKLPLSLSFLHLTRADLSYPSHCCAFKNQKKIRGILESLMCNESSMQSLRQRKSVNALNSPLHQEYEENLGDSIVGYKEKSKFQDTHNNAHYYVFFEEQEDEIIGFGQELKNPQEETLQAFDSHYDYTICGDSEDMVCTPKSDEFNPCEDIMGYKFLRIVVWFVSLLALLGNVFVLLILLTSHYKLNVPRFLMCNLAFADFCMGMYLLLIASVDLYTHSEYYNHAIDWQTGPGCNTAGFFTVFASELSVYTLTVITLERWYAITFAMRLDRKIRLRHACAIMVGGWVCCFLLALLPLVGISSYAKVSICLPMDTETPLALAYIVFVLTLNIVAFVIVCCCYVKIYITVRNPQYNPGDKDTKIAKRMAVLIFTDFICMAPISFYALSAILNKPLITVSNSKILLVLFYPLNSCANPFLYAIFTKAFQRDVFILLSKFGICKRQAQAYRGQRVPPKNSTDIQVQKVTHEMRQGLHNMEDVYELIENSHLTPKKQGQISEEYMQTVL", "assay": "qHTS for antagonists of the Thyroid Stimulation Hormone Receptor: Hit Validation in Primary Screen; also: nearly all actives have a fitted effect of over 80% in size;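 as to activity change, negative = inhibition: cells stimulated with TSH at EC80 of 4 nM during compound exposure; cAMP by competitive HTRF where cellular cAMP lowers the 665 nm FRET signal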", "details": "TSHR-expressing cells, cAMP antagonist mode; series mostly up to 58 µM; activity change, negative = inhibition: at the top concentration", "from_the_text": "The thyroid-stimulating hormone receptor (TSHR) is a member of the 7 trans-membrane-spanning receptor (7TMR) family of cell surface receptors. TSHR-mediated hyperthyroidism is important in thyroid pathology. The development of small molecule antagonists of TSHR may lead to therapeutic approaches for TSHR-mediated hyperthyroidism caused by constitutively activating mutations or stimulating auto-antibodies associated with Graves' disease. Graves' disease is the leading cause of hyperthyroidism and is caused by autoantibodies that stimulate TSHR (TsAbs) causing thyroid growth and unregulated overproduction of thyroid hormones and existing treatments have liabilities (agranulocytosis). In addition, TSHRs are known to be expressed in multiple extrathyroidal tissues including bone, brain, kidney, testis, fat and cells of the immune system but the role of the TSHR in these tissues is not clear. Therefore, TSHR antagonists/inverse agonists could be used as probes of extrathyroidal TSHR function. Finally, TSHR inverse agonists, which are a subclass of antagonists that inhibit agonist-independent (or basal or constitutive) TSHR signaling, could be used to inhibit TSH-independent signaling in patients with recurrent or metastatic thyroid cancer who are receiving thyroid hormone to suppress TSH.\nIn collaboration between scientist from the NCGC and the NIDDK, a miniaturized HTRF high-throughput screen was developed. It's a cell based assay, where an anti cAMP antibody contains a fluorescent cryptate tag (excitation 337 nm; emission 620 nm) and the acceptor is cAMP-d2 (excitation 620 nm; emission 665 nm). When antibody and cAMP-d2 interact and are excited by a 337 nm light, a FRET occurs resulting in emission at 665 nm. The assay is competition between cAMP-d2 and cAMP (from the cell lysate). The homogeneous protocol allows for one step dispense after stimulation that is automation friendly. This is a hit validation assay using the primary screen format.\nNIH Chemical Genomics Center [NCGC]\nNIH Molecular Libraries Probe Centers Network [MLPCN]\nAssay Provider: Marvin Gershengorn, NIDDK\n1. 3ul of 200 TSHR freshly harvested cells/well are dispensed into a 1536 TC-treated white solid bottom plate.\n2. Through pintool addition, 23nl of compounds and control in 100% DMSO are added to the plate.\n3. Then 1ul of EC80 TSH (4nM final) is added to the plate.\n4. Assay is incubated at 37 deg C for 2 hours.\n5. 2ul of cAMP antibody diluted 1:20 in lysis buffer is added.\n6. Immediately following, 2ul of d2 diluted 1:20 in HBSS is added seperately.\n7. The assay is incubated for 30 minutes at ambient room temperature.\n8. The result is obtained by using a ViewLux read-out with HTRF settings.", "values": [
      {"smiles": "CNc1ccc2oc(C[C@H]3O[C@@]4(CC[C@H]3C)O[C@H]([C@H](C)C(=O)c3ccc[nH]3)[C@H](C)C[C@H]4C)nc2c1C(=O)O", "Potency": "inconclusive [inhibitor, partial curve, poor fit] and inactive"},
      {"smiles": "COC(=O)C1=C(c2ccc(-c3ccccc3)c(F)c2)C[C@@H]2CC[C@H]1N2C(=O)N1CCOCC1", "Potency": "inconclusive [inhibitor, partial curve]"},
      {"smiles": "COC(=O)C1=C(c2ccc(-c3ccccc3)c(F)c2)C[C@@H]2CC[C@H]1N2C(=O)NCCCOC(C)C", "Potency": "active: 23.9 µM"},
      {"smiles": "Nc1ccc(C2(c3ccc(N)cc3)c3ccccc3-c3ccccc32)cc1", "Potency": "active: 6.01 µM"},
      {"smiles": "C[C@]12CC[C@H]3[C@@H](CC[C@]4(O)C[C@@H](O)CC[C@]34C=O)[C@@]1(O)CC[C@@H]2C1=CC(=O)OC1", "Potency": "inconclusive [inhibitor, partial curve, poor fit]"},
      {"smiles": "CCN(CC)S(=O)(=O)c1ccc(NN=C(C#N)C#N)cc1", "Potency": "active: 6.01 µM"},
      {"smiles": "COC(=O)C1=C(c2ccc(-c3ccccc3)c(F)c2)C[C@@H]2CC[C@H]1N2C(=O)NCc1ccc(F)cc1", "Potency": "inconclusive [inhibitor, partial curve]"},
      {"smiles": "C[C@]12CC[C@H](O)C[C@H]1CC[C@@H]1C2CC[C@]2(C)[C@@H](C3=CC(=O)OC3)[C@@H](O)C[C@]12O", "note": "(some centres not stated)", "Potency": "inconclusive [inhibitor, partial curve, poor fit]"},
      {"smiles": "COC(=O)C1=C(c2ccc(-c3ccccc3)c(F)c2)C[C@@H]2CC[C@H]1N2C(=O)NCCc1ccccc1", "Potency": "active: 6.01 µM"},
      {"smiles": "Cc1nc2ccc(Nc3nc4cc(S(=O)(=O)N5CCOCC5)ccc4o3)cc2s1", "Potency": "inconclusive [inhibitor, partial curve]"},
      {"smiles": "COC(=O)C1=C(c2ccc(OCc3ccccc3)cc2)C[C@@H]2CC[C@H]1N2C(=O)NCc1cccc(OC)c1", "activity change, negative = inhibition": "inactive: -13.2%"},
      {"smiles": "COC(=O)C1=C(c2ccc(-c3ccccc3)c(F)c2)C[C@@H]2CC[C@H]1N2C(=O)NCCOc1ccccc1", "Potency": "active: 5.36 µM"},
      {"smiles": "Cc1ccccc1-c1nc(CS(=O)CC(=O)N2CCC3(CC2)OCCO3)c(C)o1", "note": "(configuration not stated)", "activity change, negative = inhibition": "inactive: -7.84%"},
      {"smiles": "C[C@]12CC[C@H]3C(CCC4(O)CC(O)CC[C@]34C=O)C1=CC[C@H]2c1ccc(=O)oc1", "note": "(some centres not stated)", "Potency": "inconclusive [inhibitor, partial curve]"},
      {"smiles": "COC(=O)C1=C(c2ccc(-c3ccccc3)c(F)c2)C[C@@H]2CC[C@H]1N2C(=O)NCc1ccco1", "Potency": "active: 21.3 µM"},
      {"smiles": "C[C@]12CC[C@H](O)C[C@H]1CC[C@@H]1[C@@H]2CC[C@]2(C)[C@@H](C3=CC(=O)OC3)CC[C@]12O", "Potency": "inconclusive [inhibitor, partial curve, poor fit]"},
      {"smiles": "C[C@]12CCC3C(CCC4=CC(O)CC[C@@]43/C=N/O)C1(O)CCC2C1=CC(=O)OC1", "note": "(some centres not stated)", "Potency": "inconclusive [inhibitor, partial curve, poor fit]"},
      {"smiles": "COc1cc2c(cc1/C=C/[N+](=O)[O-])OCO2", "Potency": "inconclusive [inhibitor, partial curve]"},
      {"smiles": "CC(=O)c1ccc2c(c1)C1C(Cl)C(Sc3ccccc3[N+](=O)[O-])CC1C(C(=O)O)N2", "note": "(configuration not stated)", "Potency": "inconclusive [inhibitor, partial curve, poor fit]"},
      {"smiles": "CNc1cc(Cl)c2nonc2c1[N+](=O)[O-]", "Potency": "active: 4.78 µM"},
      {"smiles": "N#CC(C#N)=NNc1ccc([N+](=O)[O-])cc1", "Potency": "active: 2.69 µM"},
      {"smiles": "S=c1[nH]nc(-c2ccccc2)n1C1C=CCCC1", "note": "(configuration not stated)", "Potency": "inconclusive [inhibitor, partial curve]"},
      {"smiles": "C[C@H]1O[C@@H](OC2CC[C@]3(C=O)[C@H]4CC[C@]5(C)[C@@H](C6=CC(=O)OC6)CC[C@]5(O)[C@@H]4CC[C@]3(O)C2)CC2OC(C)(C)OC21", "note": "(some centres not stated)", "Potency": "inconclusive [inhibitor, partial curve, poor fit]"},
      {"smiles": "O=C(C1CCN(c2nc3ccc(Br)cc3s2)CC1)N1CCC2(CC1)OCCO2", "Potency": "active: 30.1 µM"},
      {"smiles": "CCCCN=C[C@]12CCC(O)CC1(O)CCC1[C@@H]2CC[C@]2(C)[C@H](C3C=CC(=O)O3)CCC12O", "note": "(some centres not stated)", "Potency": "inconclusive [inhibitor, partial curve, poor fit]"},
      {"smiles": "Oc1ccc(Cl)cc1Cc1cc(Cl)ccc1O", "Potency": "active: 30.1 µM"},
      {"smiles": "COc1cc(C(C)=O)ccc1OC(=O)N(C)c1ccccc1", "activity change, negative = inhibition": "inactive: -4.44%"}
    ]}
  ]
}
